Assays:
hPPARγ = molecular target: T1, hPPARγ (Homo sapiens, UniProt P37231); test: CV-1 PPRE×3 TK-Luciferase transient transfection assay; assay type: cell-based; settings: PPRE reporter, CV-1 cells, P≦0.05
T1 construct: For assessing full-length PPAR receptors, CV-1 cells were transiently co-transfected; expressed in transfected cells; host or cells: CV-1 cells
T1 sequence (P37231 1-505): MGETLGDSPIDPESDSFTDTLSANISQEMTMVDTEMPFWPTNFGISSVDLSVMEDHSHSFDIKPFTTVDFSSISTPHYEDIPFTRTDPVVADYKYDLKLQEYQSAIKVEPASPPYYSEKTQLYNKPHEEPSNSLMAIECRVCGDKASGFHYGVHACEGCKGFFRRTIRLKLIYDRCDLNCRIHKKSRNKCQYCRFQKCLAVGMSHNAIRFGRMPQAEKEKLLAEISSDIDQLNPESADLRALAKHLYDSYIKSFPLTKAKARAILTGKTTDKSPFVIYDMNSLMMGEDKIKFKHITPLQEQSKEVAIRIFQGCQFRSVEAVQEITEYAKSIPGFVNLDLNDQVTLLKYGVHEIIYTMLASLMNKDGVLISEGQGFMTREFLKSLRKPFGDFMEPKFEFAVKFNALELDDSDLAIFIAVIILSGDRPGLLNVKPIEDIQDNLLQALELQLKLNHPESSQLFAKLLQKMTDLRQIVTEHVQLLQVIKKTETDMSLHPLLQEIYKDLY
Source text: Cell Transient Transfection Assay. […] Then, cells were transiently co-transfected with a plasmid containing the luciferase gene under regulation by four Gal4 DNA binding elements (UASG×4 TK-Luciferase, a gift from Dr. Ronald M. Evans), in concert with plasmids containing the ligand binding domain for the different nuclear receptors fused to the Gal4 DNA binding domain. For assessing full-length PPAR receptors, CV-1 cells were transiently co-transfected with a plasmid containing the luciferase gene under the control of three tandem PPAR response elements (PPRE) (PPRE×3 TK-Luciferase) and hPPARγ, hPPARα or hPPARδ expression plasmids, respectively. In all cases, fluorescence protein (GFP) expression plasmid was co-transfected as the control for the transfection efficiency. Twenty-four hours after the transfection, cells were cultured for another 24 hours in Optium-MEM (Invitrogen, Carlsbad, Calif.). Then, cells were treated with different compounds as indicated in figures for 24 hours in Optium-MEM. Reporter luciferase assay kits from Promega (Madison, Wis.) were used to measure the luciferase activity according to the manufacturer's instructions with a luminometer (Victor II, Perkin-Elmer). […]
PPAR transient transfection assay. […] In all cases, fluorescence protein (GFP) expression plasmid was co-transfected as the control for transfection efficiency. […]

[1] = test system: mouse RAW264.7 macrophages; test: CD36 expression in macrophages (immunoblot, real-time PCR)
[2] = molecular target: T2, glucocorticoid receptor (GR) (Homo sapiens, UniProt P04150); test: CV-1 Gal4 ligand binding domain luciferase reporter assay; assay type: cell-based; settings: LNO2 1 μM; CV-1 cells
T2 construct: expressed in transfected cells; host or cells: CV-1 cells
T2 sequence (P04150 524-758 limits assumed): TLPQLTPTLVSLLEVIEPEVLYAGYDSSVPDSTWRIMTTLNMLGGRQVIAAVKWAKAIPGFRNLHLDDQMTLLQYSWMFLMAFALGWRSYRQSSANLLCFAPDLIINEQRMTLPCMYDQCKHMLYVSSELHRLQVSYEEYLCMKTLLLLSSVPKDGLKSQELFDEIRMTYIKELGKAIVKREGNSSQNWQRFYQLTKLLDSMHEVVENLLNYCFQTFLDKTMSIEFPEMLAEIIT
Procedure: (§1) Cell Transient Transfection Assay. CV-1 cells from ATCC (Manassas, Va.) were grown to ˜85% confluence in DMEM/F12 supplemented with 10% FBS, 1% penicillin-streptomycin. Then, cells were transiently co-transfected with a plasmid containing the luciferase gene under regulation by four Gal4 DNA binding elements (UASG×4 TK-Luciferase, a gift from Dr. Ronald M. Evans), in concert with plasmids containing the ligand binding domain for the different nuclear receptors fused to the Gal4 DNA binding domain. For assessing full-length PPAR receptors, CV-1 cells were transiently co-transfected with a plasmid containing the luciferase gene under the control of three tandem PPAR response elements (PPRE) (PPRE×3 TK-Luciferase) and hPPARγ, hPPARα or hPPARδ expression plasmids, respectively. In all cases, fluorescence protein (GFP) expression plasmid was co-transfected as the control for the transfection efficiency. Twenty-four hours after the transfection, cells were cultured for another 24 hours in Optium-MEM (Invitrogen, Carlsbad, Calif.). Then, cells were treated with different compounds as indicated in figures for 24 hours in Optium-MEM. Reporter luciferase assay kits from Promega (Madison, Wis.) were used to measure the luciferase activity according to the manufacturer's instructions with a luminometer (Victor II, Perkin-Elmer). Luciferase activity was normalized by GFP units. Each condition was performed at least in triplicates in each experiment.

[3] = molecular target: T3, PPARα ligand binding domain (Homo sapiens, UniProt Q07869); test: as above; assay type: cell-based; settings: LNO2 1 μM; CV-1 cells
T3 construct: expressed in transfected cells; host or cells: CV-1 cells
T3 sequence (Q07869 239-466 limits assumed): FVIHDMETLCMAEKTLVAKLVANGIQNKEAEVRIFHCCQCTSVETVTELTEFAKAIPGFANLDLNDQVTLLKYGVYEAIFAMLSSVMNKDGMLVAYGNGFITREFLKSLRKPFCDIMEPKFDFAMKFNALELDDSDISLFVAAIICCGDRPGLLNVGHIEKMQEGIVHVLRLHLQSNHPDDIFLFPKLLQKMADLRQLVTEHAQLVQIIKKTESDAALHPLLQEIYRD
Procedure: as §1

[4] = molecular target: T4, PPARδ ligand binding domain (Homo sapiens, UniProt Q03181); test: as above; assay type: cell-based; settings: LNO2 1 μM; CV-1 cells
T4 construct: expressed in transfected cells; host or cells: CV-1 cells
T4 sequence (Q03181 211-439 limits assumed): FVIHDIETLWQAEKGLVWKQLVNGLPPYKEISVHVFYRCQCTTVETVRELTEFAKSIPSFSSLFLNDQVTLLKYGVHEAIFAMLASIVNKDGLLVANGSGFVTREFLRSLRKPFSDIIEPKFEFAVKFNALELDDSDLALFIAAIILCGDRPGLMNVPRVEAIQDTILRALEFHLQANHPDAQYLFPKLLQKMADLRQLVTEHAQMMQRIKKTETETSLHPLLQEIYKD
Procedure: as §1

“9- and 10-nitro-9-cis-octadecenoic acid [OA-NO2]” was tested, and the “concentration at which PPARγ activation is significantly different from vehicle” value (hPPARγ) was 100 nM.

For “10-nitro-9,12-octadecadienoic acid and 12-nitro-9,12-octadecadienoic acid [LNO2]”, the “CD36 receptor protein expression” value ([1]; 16 hours treatment, immunoblot) was “induced greater CD36 receptor protein expression than an equivalent Rosiglitazone concentration”, the “CD36 mRNA expression” value ([1]; quantitative real-time PCR) was “dose-dependent increase in CD36 mRNA expression” and the GR receptor activation [2] was “no impact”. The “activation of PPARα (Gal4 LBD reporter)” value [3] was 325% and the “activation of PPARδ (Gal4 LBD reporter)” value [4] was 221%.
